Source: PubChem BioAssay AID212 (DTP/NCI, 2004)
Records with an inconclusive call do not appear. Certain results were filed several times, with different values. This list holds those alone. An entry can have further records. Results that share an entry are repeated measurements (runs, samples, wells, individuals or studies).

Test system: BDF1 mice, colon carcinoma 38 sc, T/C %
Assay: NCI In Vivo Anticancer Drug Screen. Data for tumor model Colon Carcinoma 38 (subcutaneous) in B6D2F1 (BDF1) mice
Settings: endpoint: median tumor weight (est.), higher = larger tumour
Summary of the method: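 Compound antitumor activity was assessed in mice carrying transplantable tumors. Survival or tumor size was recorded, and each value is the treated-group measurement divided by that of the vehicle-treated control group.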

[1] = dose: 50.0 mg/kg/injection, schedule: Q07DX002 (ip), vehicle: saline
[2] = dose: 100.0 mg/kg/injection, schedule: Q07DX002 (ip), vehicle: saline
[3] = dose: 12.5 mg/kg/injection, schedule: Q07DX002 (ip), vehicle: saline with Tween-80
[4] = dose: 25.0 mg/kg/injection, schedule: Q07DX002 (ip), vehicle: saline with Tween-80
[5] = dose: 100.0 mg/kg/injection, schedule: Q07DX002 (ip), vehicle: saline with Tween-80
[6] = dose: 50.0 mg/kg/injection, schedule: Q07DX002 (ip), vehicle: saline with Tween-80
[7] = dose: 400.0 mg/kg/injection, schedule: Q07DX002 (ip), vehicle: saline with Tween-80
[8] = dose: 200.0 mg/kg/injection, schedule: Q07DX002 (ip), vehicle: distilled water + Tween-80

Compound: CC(C)CCCCCCCCCCCCC(=O)NCC(=O)NC1C(C)OC(Nc2ncnc3nc[nH]c23)C(O)C1O (stereo not given)
- T/C (dose: 1.0 mg/kg/injection, schedule: Q07DX002 (ip), vehicle: distilled water + Tween-80): 113 % of control and 192 % of control

Compound: OCC12COCN1COC2
- T/C [1]: 71 % of control and 109 % of control
- T/C [2]: 56 % of control and 92 % of control
- T/C (dose: 200.0 mg/kg/injection, schedule: Q07DX002 (ip), vehicle: saline): 47 % of control and 97 % of control

Compound: O=C1OCC2(C(=O)O)C(=O)OCC12 (stereo not given)
- T/C [3]: 31 % of control and 70 % of control

Compound: NC(=O)c1ncn(C2OC(CO)C(O)C2O)c1O (stereo not given)
- T/C (dose: 100.0 mg/kg/injection, schedule: Q07DX002 (ip), vehicle: Klucel (hydroxypropylcellulose) (HPC)): 49 % of control and 109 % of control

Compound: Cc1nc(N)nc(N)c1-c1ccc(Cl)c(Cl)c1
- T/C (dose: 20.0 mg/kg/injection, schedule: Q07DX002 (ip), vehicle: saline): 14 % of control, 66 % of control, 70 % of control
- T/C (dose: 40.0 mg/kg/injection, schedule: Q07DX002 (ip), vehicle: saline): 5 % of control and 75 % of control

Compound: O=C1c2c(O)ccc(O)c2C(=O)c2c(NCCNCCO)ccc(NCCNCCO)c21
- T/C (dose: 1.5 mg/kg/injection, schedule: Q07DX003 (ip), vehicle: saline with Tween-80): 97 % of control and 160 % of control
- T/C (dose: 1.5 mg/kg/injection, schedule: Q07DX003 (iv), vehicle: acid diluted with saline): 55 % of control and 86 % of control
- T/C (dose: 6.0 mg/kg/injection, schedule: Q07DX003 (ip), vehicle: saline with Tween-80): 28 % of control, 40 % of control, 117 % of control

Compound: Cc1oc2c(C)c3oc(=O)cc(C)c3cc2c1CCl
- T/C [4]: 82 % of control and 112 % of control
- T/C [5]: 60 % of control and 109 % of control

Compound: Cc1cc(N(CC(C)Br)CC(C)Br)ccc1N=Nc1ccccc1C(=O)O (stereo not given)
- T/C (dose: 3.12 mg/kg/injection, schedule: Q07DX002 (ip), vehicle: saline with Tween-80): 88 % of control and 118 % of control
- T/C [6]: 54 % of control and 95 % of control

Compound: COc1cccc2c1C(=O)c1c(O)c3c(c(O)c1C2=O)C[C@@](O)(C(C)=O)C[C@@H]3OC1CC(N(C)C)C(O)C(C)O1 (stereo not given in full)
- T/C (dose: 18.0 mg/kg/injection, schedule: Q07DX002 (ip), vehicle: saline): 23 % of control, 32 % of control, 52 % of control

Compound: CCCCCCC/C=C/C(=O)OC1C(OC2C(OC(CCCCCCC)CC(=O)OC(CCCCCCC)CC(=O)O)OC(C)C(O)C2O)OC(C)C(O)C1O (stereo not given)
- T/C (dose: 56.0 mg/kg/injection, schedule: Q07DX002 (ip), vehicle: Klucel (hydroxypropylcellulose) (HPC)): 95 % of control, 105 % of control, 121 % of control

Compound: CC[C@H](CC[C@@H](C)C1CC[C@H]2[C@@H]3CC=C4C[C@@H](OP(=O)(N5CC5)N5CC5)CC[C@]4(C)[C@H]3CC[C@]12C)C(C)C (stereo not given in full)
- T/C [3]: 80 % of control and 116 % of control
- T/C [4]: 107 % of control and 184 % of control
- T/C [5]: 103 % of control and 159 % of control

Compound: ClCCCN1CCCCC1CCl (stereo not given)
- T/C (dose: 1.56 mg/kg/injection, schedule: Q07DX002 (ip), vehicle: saline): 46 % of control, 61 % of control, 160 % of control
- T/C (dose: 3.12 mg/kg/injection, schedule: Q07DX002 (ip), vehicle: saline): 45 % of control, 73 % of control, 88 % of control
- T/C (dose: 6.25 mg/kg/injection, schedule: Q07DX002 (ip), vehicle: saline): 49 % of control, 86 % of control, 122 % of control
- T/C (dose: 12.5 mg/kg/injection, schedule: Q07DX002 (ip), vehicle: saline): 37 % of control, 57 % of control, 110 % of control
- T/C (dose: 25.0 mg/kg/injection, schedule: Q07DX002 (ip), vehicle: saline): 53 % of control, 79 % of control, 110 % of control

Compound: O=c1[nH]c(=O)c2nc(-c3cccnc3)cnc2[nH]1
- T/C [1]: 86 % of control and 120 % of control
- T/C [2]: 78 % of control and 113 % of control

Compound: O=C(CCCN1CCC(O)(c2cccc(C(F)(F)F)c2)CC1)c1ccc(F)cc1
- T/C (dose: 3.12 mg/kg/injection, schedule: Q07DX003 (ip), vehicle: Klucel (hydroxypropylcellulose) (HPC)): 33 % of control and 89 % of control

Compound: C[N+](C)(C)c1cc2c(nn1)Nc1ccccc1S2
- T/C (dose: 200.0 mg/kg/injection, schedule: Q07DX002 (ip), vehicle: Klucel (hydroxypropylcellulose) (HPC)): 87 % of control and 150 % of control

Compound: CC[C@]1(O)C[C@H]2CN(CCc3c([nH]c4ccccc34)[C@@](C(=O)OC)(c3cc4c(cc3OC)N(C=O)[C@H]3[C@@](O)(C(=O)OC)[C@H](OC(C)=O)[C@]5(CC)C=CCN6CC[C@]43[C@@H]65)C2)C1
- T/C (dose: 0.25 mg/kg/injection, schedule: Q07DX002 (ip), vehicle: saline): 65 % of control, 102 % of control, 103 % of control
- T/C (dose: 0.5 mg/kg/injection, schedule: Q07DX002 (ip), vehicle: saline): 37 % of control and 77 % of control
- T/C (dose: 2.0 mg/kg/injection, schedule: Q07DX002 (ip), vehicle: saline): 49 % of control and 93 % of control

Compound: CC(=O)Oc1ccc[nH]c1=O
- T/C [7]: 72 % of control and 123 % of control

Compound: CC(Oc1ccccc1-c1ccccc1)C(=O)N(C)C (stereo not given)
- T/C [4]: 45 % of control and 104 % of control
- T/C [6]: 52 % of control and 85 % of control

Compound: CC(C)NC(=O)OCc1c(COC(=O)NC(C)C)c(-c2ccc(Cl)c(Cl)c2)n2c1CCC2
- T/C (dose: 100.0 mg/kg/injection, schedule: Q07DX002 (ip), vehicle: distilled water + Tween-80): 34 % of control, 69 % of control, 82 % of control
- T/C [8]: 11 % of control and 43 % of control

Compound: C=CCNc1nc2c(s1)CCc1cc(OC)c(OC)cc1-2
- T/C [4]: 109 % of control and 163 % of control
- T/C [6]: 109 % of control and 152 % of control
- T/C [5]: 99 % of control and 196 % of control

Compound: CCc1nc(N)nc(N)c1-c1ccc(Cl)c([N+](=O)[O-])c1
- T/C [4]: 73 % of control and 105 % of control

Compound: CC(=O)Oc1c[nH]c(=O)[nH]c1=O
- T/C (dose: 25.0 mg/kg/injection, schedule: Q07DX002 (ip), vehicle: distilled water + Tween-80): 49 % of control and 76 % of control
- T/C [8]: 73 % of control and 174 % of control

Compound: C1OC1CO[C@@H]1CO[C@H]2[C@@H]1OC[C@H]2OCC1CO1 (stereo not given in full)
- T/C (dose: 100.0 mg/kg/injection, schedule: Q07DX003 (ip), vehicle: saline): 80 % of control and 119 % of control
- T/C (dose: 400.0 mg/kg/injection, schedule: Q07DX003 (ip), vehicle: saline): 38 % of control and 74 % of control

Compound: CC(C#N)(C#N)N=Nc1ccc(Cl)cc1Cl
- T/C [7]: 68 % of control and 95 % of control

Compound: Cc1ccc(S(=O)(=O)OCOS(=O)(=O)c2ccc(C)cc2)cc1
- T/C (dose: 800.0 mg/kg/injection, schedule: Q07DX002 (ip), vehicle: Klucel (hydroxypropylcellulose) (HPC)): 56 % of control and 82 % of control

Compound: OC(C1CO1)C(O)C1CO1 (stereo not given)
- T/C (dose: 0.5 mg/kg/injection, schedule: Q07DX003 (ip), vehicle: saline): 69 % of control and 110 % of control

Compound: CCC[P+](c1ccccc1)(c1ccccc1)c1ccccc1
- T/C (dose: 12.5 mg/kg/injection, schedule: Q07DX003 (ip), vehicle: saline with Tween-80): 83 % of control and 119 % of control

Compound: O=C(O[Si](Cc1ccccc1)(Cc1ccccc1)Cc1ccccc1)N(CCCl)CCCl
- T/C [3]: 40 % of control and 187 % of control
- T/C [6]: 59 % of control and 99 % of control

Compound: ClC(Cl)=C(Cl)Cl
- T/C (dose: 200.0 mg/kg/injection, schedule: Q07DX002 (ip), vehicle: other): 90 % of control and 118 % of control
- T/C (dose: 225.0 mg/kg/injection, schedule: Q07DX002 (ip), vehicle: saline with Tween-80): 90 % of control and 178 % of control
- T/C (dose: 450.0 mg/kg/injection, schedule: Q07DX002 (ip), vehicle: saline with Tween-80): 84 % of control and 115 % of control

Compound: CCC1=C[C@H]2CN(CCc3c([nH]c4ccccc34)[C@@](C(=O)OC)(c3cc4c(cc3OC)N(C)[C@H]3[C@@](O)(C(=O)OC)[C@H](OC(C)=O)[C@]5(CC)C=CCN6CC[C@]43[C@@H]65)C2)C1
- T/C (dose: 0.5 mg/kg/injection, schedule: Q07DX002 (ip), vehicle: water): 67 % of control and 116 % of control
- T/C (dose: 1.0 mg/kg/injection, schedule: Q07DX002 (ip), vehicle: water): 75 % of control and 109 % of control
- T/C (dose: 2.0 mg/kg/injection, schedule: Q07DX002 (ip), vehicle: water): 65 % of control, 85 % of control, 95 % of control
- T/C (dose: 8.0 mg/kg/injection, schedule: Q07DX002 (ip), vehicle: water): 29 % of control, 73 % of control, 92 % of control
- T/C (dose: 16.0 mg/kg/injection, schedule: Q07DX002 (ip), vehicle: water): 31 % of control and 72 % of control

Compound: CC(=O)Nc1ccc(S(=O)(=O)CO)cc1
- T/C [7]: 76 % of control and 124 % of control
